Measurements taken from the supplement of paper PMC3334620.
Whole data set: some 33,000 sequences, median “E-score (-0.5 to 0.5)” near -0.035, cut for the highest 2% near 0.34. The list shows a part of the results.

These sequences were tested against T1, Mot3 (UniProt P54785) (assay: PBM E-score (8-mer binding enrichment) (E-score (-0.5 to 0.5)); higher = stronger / more preferred TF binding; most listed sequences are background and not binding sites). Conditions: protein concentration: 200 nM; construct: GST-full length.
T1 sequence: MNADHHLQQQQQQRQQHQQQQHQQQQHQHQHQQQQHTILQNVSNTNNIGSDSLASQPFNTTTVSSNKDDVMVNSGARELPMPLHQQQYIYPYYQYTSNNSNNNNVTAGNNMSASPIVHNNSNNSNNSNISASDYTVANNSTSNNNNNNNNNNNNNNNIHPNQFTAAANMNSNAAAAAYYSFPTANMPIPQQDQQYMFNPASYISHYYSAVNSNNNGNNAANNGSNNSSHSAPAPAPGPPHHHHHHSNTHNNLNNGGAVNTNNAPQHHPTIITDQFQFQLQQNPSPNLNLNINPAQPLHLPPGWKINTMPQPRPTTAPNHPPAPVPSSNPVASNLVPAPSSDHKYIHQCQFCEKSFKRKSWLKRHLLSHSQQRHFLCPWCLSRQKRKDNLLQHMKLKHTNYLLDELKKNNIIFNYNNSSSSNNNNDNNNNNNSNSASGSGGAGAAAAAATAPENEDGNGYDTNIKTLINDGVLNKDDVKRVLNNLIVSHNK
Description: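 Universal 'all 10-mer' protein binding microarrays (Agilent AMADID 015681) probed with GST-tagged S. cerevisiae TFs (full-length or DBD) made by in vitro transcription/translation (PURExpress), about 100-200 nM. Bound TF was detected with fluorescent anti-GST. Each ungapped 8-mer (which stands for itself and its reverse complement) is scored by the PBM enrichment score (E-score), a modified Wilcoxon-Mann-Whitney statistic from -0.5 to +0.5, computed with the Universal PBM Analysis Suite. Scale: above 0.35 generally sequence-specific binding.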

Sequence	PBM E-score
AGAGTAAC	-0.0792
GACGTTAA	0.206
TCAACTAA	0.144
ACCGTAGT	-0.133
TGTGTAAA	0.416
ATCATAGG	0.00869
ATGAATTC	0.116
AAACCCAA	0.134
CAATCACA	0.147
AACAATCA	0.142
GCGTTAGC	0.125
ACCCGAAG	-0.0962
CACTTTCC	0.0399
CTGGGGTA	-0.113
GCCCACCC	-0.103
GTTACTAA	0.183
CTGTTCGC	0.117
AATCGCCT	0.0788
ATGGCCAT	-0.171
ATACCGTA	0.054
CTTAGATA	-0.0179
GGGTCTAA	-0.0974
GTCGGGTA	0.142
ACCCGCGC	0.0648
CGACCTAC	-0.114

Sequence	PBM E-score
GATGGGGC	-0.129
CCAAACTC	-0.0876
AACGCTCG	-0.0681
AAAATCGC	-0.111
CGGGGAAC	-0.0973
CCGTACAG	-0.0174
GGCCTACA	0.00717
ATTTACTA	0.113
GTATATGA	0.129
ACGGCAGG	-0.17
GTTGGAGA	0.0902
CTCTCCCA	-0.0541
GGGTTCAA	-0.039
ATTTTTCG	0.115
CCGGATAA	-0.131
GTTGTGAA	0.133
TCCTCTCA	-0.133
GATGGAAA	-0.0458
ACCAAGTA	0.101
ACGGGAAT	-0.0815
CTATTGTC	-0.253
ATAGACCG	0.0362
CTGTTGCC	0.317
GACTTTTA	0.0474
AAGTGATT	0.048

Sequence	PBM E-score
ATTCCTCC	-0.0184
CTAACGAA	-0.101
GGGTGAAC	-0.0631
CTGTTCGA	-0.0328
GGTTAATA	0.133
CAGCTGGG	-0.0915
CTGCCGTC	-0.305
GAAATCCA	-0.0415
CTTCGCTC	-0.244
AGGGACTG	-0.226
ATACGCGG	0.177
ATAGCCCG	-0.107
ACGATTAG	-0.0892
GTGTTTAA	0.22
GCAAAAGA	-0.0853
ATCAGATC	-0.196
CAATTGTA	-0.0432
GATGGTAC	-0.0492
ACAACCCC	-0.0279
ATCAAACC	-0.0351
GCATAGCC	-0.127
AGACTACC	-0.12
AGCACACT	-0.0522
AAGCGGTC	-0.228
ATCCAGTC	-0.156

Sequence	PBM E-score
GCGGTACA	-0.0033
ACGTTCAG	-0.084
AACGAGTA	0.162
CGTGGATA	0.112
GGGTTACC	-0.0332
GTTGGCTA	-0.14
ACGCGCCC	0.0896
AACAGATC	0.00801
CCATTATC	-0.00018
CCAGTCCG	-0.131
ATAGCCTA	0.158
AGGCTTAT	-0.0461
ATAACGGA	0.0368
GTCTTAGA	-0.0124
CGTGCAAC	0.0126
AATACAGG	0.287
GCTGCTAA	-0.0248
ACATGAAT	0.294
CGCTCTCC	-0.295
AACTGCTC	-0.0963
CCTGGGGC	-0.292
ACGATGGG	-0.272
CTATAACA	0.153
AGATTCCC	-0.236
CCCCTCCA	-0.268

Sequence	PBM E-score
GCCCTCAC	-0.246
CTCCGCAC	-0.159
TAATCAGA	-0.0687
CATTTCAC	0.0148
CATCTGCC	-0.0475
AATCAAAC	0.065
CCCCCCGG	-0.415
GGTTCATA	0.0937
ATAACACG	0.391
ATTTCCCA	-0.0389
AGGCATCC	0.384
GGAAGTTA	0.0395
CTGTGAAG	-0.0313
CCTGTTAC	0.283
CGAACAGC	-0.0835
CCCTGTGA	0.0763
CGATCTAC	-0.0314
GTTGCTAA	0.108
AAGGCTAT	-0.0295
AGGCAGAA	0.00917
CATGTGGC	-0.00289
CCCGAAAG	-0.0361
AGATCACA	-0.0374
ATTGCAAG	-0.00384
GGCGCGCC	0.0566

Sequence	PBM E-score
ACTACAAT	0.0197
CTAGCCGC	-0.124
CCACTTAC	0.0843
AGAGATCC	-0.245
ACACGAGT	0.332
AGAGCAAG	-0.00945
CGGAATTA	0.152
GCGGTATA	-0.118
CGTCCATA	-0.0465
GGCCACCA	-0.0558
AAAGGGGG	-0.0401
TTGACAAA	0.167
CCAACAGG	0.00289
CTATATAC	0.271
ACCTGATA	0.203
CCCGTTCA	-0.148
ACGATCCC	-0.205
CCAAGCGG	-0.135
ACAATCGT	0.138
GGTACTAA	0.0744
GTGGCTAA	-0.092
ATGCGAAT	0.0233
AATAATGA	0.0121
GAAAATGA	0.0287
TCTAAAGA	0.168

Sequence	PBM E-score
CCTTAGCC	-0.183
AATAGATC	-0.11
CGCGAGGC	-0.125
ACGGGCAC	0.159
AACCTTAT	0.0189
ACTCCGGA	-0.0267
CCAGTCAA	-0.0833
AACGGATA	-0.118
CTACCGCC	-0.0822
AAAAGTCC	-0.0392
AAGAAGGT	0.146
AGTCCACT	-0.0666
CGATTCTA	-0.207
CTGCCAAA	-0.11
AGAAGGCC	-0.0506
AAGAACGG	-0.266
AAGTCATC	-0.182
ACCGGTAC	-0.0922
GAATGCAA	-0.0468
AGACCAAG	-0.175
AGATAGGG	-0.234
CGATAAGC	-0.261
TGGAGGAA	0.0436
ATAGTCAG	-0.0316
CAAACGCG	0.121

Sequence	PBM E-score
GGGCTTCA	-0.104
ATGCAAAG	0.128
ATTACCTC	0.076
AACGCGAC	0.23
GCGTTAGA	-0.19
AATTAACG	0.181
TCACGAGA	-0.168
CACTCCTG	-0.143
ACTGAAGC	0.00463
CGACCTCG	-0.166
ACAATAAT	0.0908
CCGCTTTC	-0.0011
AGCCGCAA	-0.287
GCACCAGA	0.057
CAAAATTC	0.0637
CATCCCCG	-0.239
TATTTAGA	0.184
GTCTAGAA	-0.106
CTGAAGGC	0.151
ACCCGGAA	-0.0257
AAGAATTA	0.133
GAAAGTCA	0.117
AAAGCCCA	-0.1
ATGATAGC	0.11
ACGTATAT	0.211

Sequence	PBM E-score
CCCGAAAC	-0.104
AATGCACT	0.144
TGCCGACA	-0.0442
TACAAGCA	0.284
CCATTGTA	0.127
GACAAACA	0.0771
TGATGCAA	0.0599
ATCTGGTC	-0.00325
CAGGACCG	-0.12
CTACAGGA	0.242
AAATGATC	-0.214
CGGGCTCC	-0.167
ACCCTATA	-0.112
ATTCCATC	-0.0416
AGGAAACT	0.421
GGATGCGA	-0.246
CTTATCAC	-0.0296
CGGGCGGA	-0.277
AAAGATAA	0.104
